{"source": "paper PMC12040169", "about": "(PLOS Biology, 2025)", "note": "The other results are listed elsewhere or left out."}
{"test_system": "T1, C. trachomatis L2/434/Bu expressing GFP (CTL2-GFP)", "T1 construct": "L2/434/Bu GFP intracellular growth in HeLa cells", "design": "species or system HeLa; C. trachomatis total inclusion area by high-content imaging, normalised to DMSO", "conditions": "total inclusion area; 28.5 h, 10 µM; inhibitor", "procedure,_shortened": "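Following bulk GFP and resorufin fluorescence reads, infected cells were fixed, Hoechst-stained and imaged on a high-content platform. Inclusion total area and number per well served as growth proxies; nuclei counts indicated host viability. MICs were derived as for the fluorescence assay.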"}
{"smiles": "Cc1cc(C)nc(NS(=O)(=O)c2ccc(Nc3ccc4nonc4c3[N+](=O)[O-])cc2)n1", "note": "[CBK261444]", "% of control remaining": 30.3348}
{"smiles": "COc1cc(Nc2nc(-c3ccco3)cn3ccnc23)cc(OC)c1OC", "note": "[CBK037413]", "% of control remaining": 153.958}
{"smiles": "CCC(=O)NCCCn1c(-c2cccnc2C)cc2cccnc21", "note": "[CBK282646]", "% of control remaining": 105.747}
{"smiles": "CSc1nnc(CCCNC(=O)c2cccc(C#N)c2)n1C1CCCC1", "note": "[CBK305459]", "% of control remaining": 64.5208}
{"smiles": "COc1ccc(NS(=O)(=O)c2ccc(NC(=O)c3nc4nc(C)cc(C(F)F)n4n3)cc2)cc1", "note": "[CBK266123]", "% of control remaining": 107.281}
{"smiles": "CCC(CO)Nc1cncc(-c2cccc(F)c2)n1", "note": "(stereo not drawn) [CBK065752]", "% of control remaining": 78.9153}
{"smiles": "O=C(O)C1CCN(c2c(-c3ccccc3)c3cc(Cl)ccc3[nH]c2=O)CC1", "note": "[CBK287198]", "% of control remaining": 107.406}
{"smiles": "N#Cc1ccc(-n2cc(-c3ccc(F)cc3F)nn2)cc1", "note": "[CBK112990]", "% of control remaining": 59.7829}
{"smiles": "CS(=O)(=O)N1C[C@@H]2CCCCN(Cc3cccc(F)c3)[C@@H]2C1", "note": "[CBK285514]", "% of control remaining": 98.5515}
{"smiles": "O=C(NC[C@H]1CCCN(C(=O)c2cccs2)C1)c1ccco1", "note": "[CBK284261]", "% of control remaining": 108.004}
{"smiles": "NS(=O)(=O)c1ccc(CNC(=O)c2cc(-c3cccnc3)nc3ccc(Br)cc23)cc1", "note": "[CBK267740]", "% of control remaining": 111.511}
{"smiles": "CCOc1ccccc1-c1ccccc1NC(=O)c1ccc(-n2nc(C)cc2C)cc1", "note": "[CBK285845]", "% of control remaining": 6.407}
{"smiles": "CCOC(=O)C1CCN(Cc2nc(-c3ccc(OC)c(OC)c3)no2)CC1", "note": "[CBK268852]", "% of control remaining": 98.496}
{"smiles": "Cc1ccc(CN(Cc2c[nH]cn2)C2CC(C)(C)NC(C)(C)C2)o1", "note": "[CBK283175]", "% of control remaining": 102.977}
{"smiles": "Cc1cccc(-c2noc(CNC(=O)CSc3ccccc3)n2)c1", "note": "[CBK270209]", "% of control remaining": 97.6957}
{"smiles": "COc1cc(Nc2cc(C)nc3ncnn23)ccc1N1CCCC1=O", "note": "[CBK297725]", "% of control remaining": 122.425}
{"smiles": "O=C(O)COCC(=O)N1CCN(C(c2ccccc2)c2ccccc2)CC1", "note": "[CBK232579]", "% of control remaining": 104.253}
{"smiles": "CCNC(=O)NC[C@H]1C[C@@H]2CCN1C[C@@H]2c1cc(-c2ccccc2)nc(C)n1", "note": "[CBK289125]", "% of control remaining": 96.7276}
{"smiles": "COc1ccc(CNC(=O)N(Cc2cccnc2)Cc2ccc3c(c2)OCO3)cc1OC", "note": "[CBK159456]", "% of control remaining": 109.499}
{"smiles": "CCN(CC)C(=O)CN1CCC(Oc2cncc(OCc3cccnc3)n2)C1", "note": "(stereo not drawn) [CBK084461]", "% of control remaining": 81.1355}
{"smiles": "CCOC(=O)c1[nH]c2ccccc2c1NC(=O)Cc1c(Cl)cccc1Cl", "note": "[CBK160132]", "% of control remaining": 92.0234}
{"smiles": "COc1cc(NC(=O)c2cc([N+](=O)[O-])ccc2N2CCOCC2)ccc1-c1cc2ccccc2oc1=O", "note": "[CBK269128]", "% of control remaining": 83.1624}
{"smiles": "Cc1nnc(-c2cc(CCC(C)C)n(-c3cccc(C(=O)N4CCCCC4)c3)n2)o1", "note": "[CBK114689]", "% of control remaining": 79.3305}
{"smiles": "N#Cc1cccnc1SC(C(=O)O)c1ccccc1", "note": "(stereo not drawn) [CBK286614]", "% of control remaining": 76.5445}
{"smiles": "COc1ccc(-c2nnc(S)n2/N=C\\c2ccc(C(=O)O)cc2)cc1", "note": "[CBK264419]", "% of control remaining": 119.945}
{"smiles": "Cc1csc(C(Cc2ccsc2)NC(=O)c2cnn(C)c2C)n1", "note": "(stereo not drawn) [CBK285148]", "% of control remaining": 106.325}
{"smiles": "COc1ccc(CCC(=O)N2CCC(c3cccc(Cc4cccc(F)c4)n3)CC2)cc1", "note": "[CBK286212]", "% of control remaining": 92.0793}
{"smiles": "Cc1cc(NC(=O)c2sc3nc4c(cc3c2N)N2CCC4CC2)no1", "note": "[CBK270217]", "% of control remaining": 60.17}
{"smiles": "CC(C)N1C(=O)[C@@H]2CN(C(=O)C3CCCC3)CCN2C1=O", "note": "[CBK289612]", "% of control remaining": 109.043}
{"smiles": "O=C(NCc1cn2ccccc2n1)c1ccc(C2SCCS2)cc1", "note": "[CBK295167]", "% of control remaining": 93.8858}
{"smiles": "O=C(C1CN(C(=O)Cn2ncc(=O)c3ccccc32)c2ccccc2O1)N1CCCCC1", "note": "(stereo not drawn) [CBK297115]", "% of control remaining": 96.2985}
{"smiles": "O=[N+]([O-])c1ccccc1S(=O)(=O)N1CCN(S(=O)(=O)Cc2ccccc2)CC1", "note": "[CBK264230]", "% of control remaining": 104.559}
{"smiles": "COc1ccccc1CC(C)NC(=O)c1cc(C2CC2)nn1C", "note": "(stereo not drawn) [CBK283290]", "% of control remaining": 81.446}
{"smiles": "COc1ccc(OC)c(NC(=O)c2cc(=O)[nH]c3ccccc23)c1", "note": "[CBK297521]", "% of control remaining": 101.785}
{"smiles": "COC(=O)N1CCC(C(=O)NC(c2ccccc2)c2ncccc2C)CC1", "note": "(stereo not drawn) [CBK059885]", "% of control remaining": 89.365}
{"smiles": "OCCNc1nc(Nc2ccc(Br)cc2)nc2ccccc12", "note": "[CBK266724C]", "% of control remaining": 0.8015}
{"smiles": "Cc1cc2c(o1)c1cnn(CC(=O)N3CCC(C)CC3)c(=O)c1n2C", "note": "[CBK284236]", "% of control remaining": 76.4252}
{"smiles": "O=C(c1csc2c1CCCC2)N1CCC(O)(c2ccccn2)CC1", "note": "[CBK282397]", "% of control remaining": 72.0864}
{"smiles": "O=C(NCCc1ccccc1)c1c(NC(=O)C2COc3ccccc3O2)sc2c1CCCC2", "note": "(stereo not drawn) [CBK265522]", "% of control remaining": 88.2872}
